This is one part of the list.
How the values were obtained:
Test in all cases: glycan array binding signal (z-score within array); higher = stronger binding
Conditions in all cases: glycan notation: IUPAC condensed, linker removed
[1] = target: Gal(b1-3)GlcNAc(b1-3)Gal(b1-4)GlcNAc(b1-2)[Gal(b1-3)GlcNAc(b1-3)Gal(b1-4)GlcNAc(b1-6)]Man(a1-6)[Gal(b1-3)GlcNAc(b1-3)Gal(b1-4)GlcNAc(b1-2)Man(a1-3)]Man(b1-4)GlcNAc(b1-4)[Fuc(a1-6)]GlcNAc
How it was run: (§1)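 The binding signal is a Z-score computed within each array. Data were drawn from 3228 arrays in the Consortium for Functional Glycomics database, restricted to those with a known protein sequence. Scores were averaged over arrays of the same protein sequence at different concentrations or buffers, and over linkers, and negative values can be taken as non-binding.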

[2] = target: Gal(b1-3)GlcNAc(b1-3)Gal(b1-4)GlcNAc(b1-3)Gal(b1-4)GlcNAc(b1-2)[Gal(b1-3)GlcNAc(b1-3)Gal(b1-4)GlcNAc(b1-3)Gal(b1-4)GlcNAc(b1-6)]Man(a1-6)[Gal(b1-3)GlcNAc(b1-3)Gal(b1-4)GlcNAc(b1-3)Gal(b1-4)GlcNAc(b1-2)Man(a1-3)]Man(b1-4)GlcNAc(b1-4)[Fuc(a1-6)]GlcNAc
How it was run: as §1

[3] = target: Gal(b1-3)GlcNAc(b1-3)Gal(b1-4)GlcNAc(b1-6)[Gal(b1-3)GlcNAc(b1-3)]Gal(b1-4)Glc
How it was run: as §1

[4] = target: Gal(b1-3)GlcNAc(b1-3)Gal(b1-4)[Fuc(a1-3)]GlcNAc
How it was run: as §1

[5] = target: Gal(b1-3)GlcNAc(b1-3)Gal(b1-4)[Fuc(a1-3)]GlcNAc(b1-6)[Gal(b1-3)GlcNAc(b1-3)]Gal(b1-4)Glc
How it was run: as §1

[6] = target: Gal(b1-3)GlcNAc(b1-3)GalNAc
How it was run: as §1

[7] = target: Gal(b1-3)GlcNAc(b1-6)Gal(b1-4)GlcNAc
How it was run: as §1

[8] = target: Gal(b1-3)GlcNAc(b1-6)GalNAc
How it was run: as §1

[9] = target: Gal(b1-3)GlcNAc(b1-6)[Gal(b1-3)]GalNAc
How it was run: as §1

Gal(b1-3)GlcNAc6S = target: Gal(b1-3)GlcNAc6S
How it was run: as §1

[10] = target: Gal(b1-3)[Fuc(a1-4)]GlcNAc
How it was run: as §1

[11] = target: Gal(b1-3)[Fuc(a1-4)]GlcNAc(b1-2)Man
How it was run: as §1

[12] = target: Gal(b1-3)[Fuc(a1-4)]GlcNAc(b1-2)Man(a1-3)[Gal(b1-3)[Fuc(a1-4)]GlcNAc(b1-2)Man(a1-6)]Man(b1-4)GlcNAc(b1-4)GlcNAc
How it was run: as §1

[13] = target: Gal(b1-3)[Fuc(a1-4)]GlcNAc(b1-2)Man(a1-3)[Gal(b1-3)[Fuc(a1-4)]GlcNAc(b1-2)Man(a1-6)]Man(b1-4)GlcNAc(b1-4)[Fuc(a1-6)]GlcNAc
How it was run: as §1

[14] = target: Gal(b1-3)[Fuc(a1-4)]GlcNAc(b1-3)Gal(b1-3)[Fuc(a1-4)]GlcNAc
How it was run: as §1

[15] = target: Gal(b1-3)[Fuc(a1-4)]GlcNAc(b1-3)Gal(b1-4)GlcNAc
How it was run: as §1

[16] = target: Gal(b1-3)[Fuc(a1-4)]GlcNAc(b1-3)Gal(b1-4)[Fuc(a1-3)]GlcNAc
How it was run: as §1

[17] = target: Gal(b1-3)[Fuc(a1-4)]GlcNAc(b1-6)GalNAc
How it was run: as §1

[18] = target: Gal(b1-3)[GlcNAc(b1-6)]GalNAc
How it was run: as §1

[19] = target: Gal(b1-3)[Neu5Ac(a2-6)]GalNAc
How it was run: as §1

[20] = target: Gal(b1-3)[Neu5Ac(a2-6)]GlcNAc(b1-4)Gal(b1-4)Glc
How it was run: as §1

[21] = target: Gal(b1-3)[Neu5Ac(a2-6)]GlcNAc(b1-6)Gal(b1-4)Glc
How it was run: as §1

[22] = target: Gal(b1-3)[Neu5Ac(b2-6)]GalNAc
How it was run: as §1

Gal(b1-4)Gal = target: Gal(b1-4)Gal
How it was run: as §1

[23] = target: Gal(b1-4)GalNAc(a1-3)[Fuc(a1-2)]Gal(b1-4)GlcNAc
How it was run: as §1

[24] = target: Gal(b1-4)GalNAc(b1-3)[Fuc(a1-2)]Gal(b1-4)GlcNAc
How it was run: as §1

Gal(b1-4)Glc = target: Gal(b1-4)Glc
How it was run: as §1

Gal(b1-4)Glc6S = target: Gal(b1-4)Glc6S
How it was run: as §1

Gal(b1-4)GlcNAc = target: Gal(b1-4)GlcNAc
How it was run: as §1

[25] = target: Gal(b1-4)GlcNAc(a1-6)Gal(b1-4)GlcNAc
How it was run: as §1

Gal(b1-4)GlcNAc(b1-2)Man = target: Gal(b1-4)GlcNAc(b1-2)Man
How it was run: as §1

[26] = target: Gal(b1-4)GlcNAc(b1-2)Man(a1-3)Man(b1-4)GlcNAc(b1-4)GlcNAc
How it was run: as §1

[27] = target: Gal(b1-4)GlcNAc(b1-2)Man(a1-3)[Gal(b1-4)GlcNAc(b1-2)Man(a1-6)]Man(b1-4)GlcNAc(b1-4)GlcNAc
How it was run: as §1

[28] = target: Gal(b1-4)GlcNAc(b1-2)Man(a1-3)[Gal(b1-4)GlcNAc(b1-2)Man(a1-6)]Man(b1-4)GlcNAc(b1-4)[Fuc(a1-6)]GlcNAc
How it was run: as §1

[29] = target: Gal(b1-4)GlcNAc(b1-2)Man(a1-3)[Gal(b1-4)GlcNAc(b1-2)Man(a1-6)][Gal(b1-4)GlcNAc(b1-4)]Man(b1-4)GlcNAc(b1-4)[Fuc(a1-6)]GlcNAc
How it was run: as §1

[30] = target: Gal(b1-4)GlcNAc(b1-2)Man(a1-3)[Gal(b1-4)GlcNAc(b1-2)Man(a1-6)][GlcNAc(b1-4)]Man(b1-4)GlcNAc(b1-4)[Fuc(a1-6)]GlcNAc
How it was run: as §1

[31] = target: Gal(b1-4)GlcNAc(b1-2)Man(a1-3)[Gal(b1-4)GlcNAc(b1-2)][GlcNAc(b1-4)]Man(b1-4)GlcNAc(b1-4)GlcNAc
How it was run: as §1

[32] = target: Gal(b1-4)GlcNAc(b1-2)Man(a1-3)[GlcNAc(b1-2)Man(a1-6)]Man(b1-4)GlcNAc(b1-4)GlcNAc
How it was run: as §1

[33] = target: Gal(b1-4)GlcNAc(b1-2)Man(a1-3)[GlcNAc(b1-4)][Gal(b1-4)GlcNAc(b1-2)Man(a1-6)]Man(b1-4)GlcNAc(b1-4)GlcNAc
How it was run: as §1

[34] = target: Gal(b1-4)GlcNAc(b1-2)Man(a1-3)[Man(a1-6)]Man(b1-4)GlcNAc(b1-4)GlcNAc
How it was run: as §1

[35] = target: Gal(b1-4)GlcNAc(b1-2)Man(a1-6)Man(b1-4)GlcNAc(b1-4)GlcNAc
How it was run: as §1

[36] = target: Gal(b1-4)GlcNAc(b1-2)Man(a1-6)[GlcNAc(b1-2)Man(a1-3)]Man(b1-4)GlcNAc(b1-4)GlcNAc
How it was run: as §1

[37] = target: Gal(b1-4)GlcNAc(b1-2)Man(a1-6)[Man(a1-3)]Man(b1-4)GlcNAc(b1-4)GlcNAc
How it was run: as §1

[38] = target: Gal(b1-4)GlcNAc(b1-2)[Gal(b1-4)GlcNAc(b1-4)]Man(a1-3)[Gal(b1-4)GlcNAc(b1-2)Man(a1-6)]Man(b1-4)GlcNAc(b1-4)GlcNAc
How it was run: as §1

[39] = target: Gal(b1-4)GlcNAc(b1-2)[Gal(b1-4)GlcNAc(b1-4)]Man(a1-3)[Gal(b1-4)GlcNAc(b1-2)[Gal(b1-4)GlcNAc(b1-6)]Man(a1-6)]Man(b1-4)GlcNAc(b1-4)GlcNAc
How it was run: as §1

B1: Gal 1 (Mus musculus), P16045 (protein)
chain: MACGLVASNLNLKPGECLKVRGEVASDAKSFVLNLGKDSNNLCLHFNPRFNAHGDANTIVCNTKEDGTWGTEHREPAFPFQPGSITEVCITFDQADLTIKLPDGHEFKFPNRLNMEAINYMAADGDFKIKCVAFE
glycan array binding signal (z-score) [1]: 1.34 | glycan array binding signal (z-score) [2]: 2.97 | glycan array binding signal (z-score) [3]: 0.473 | glycan array binding signal (z-score) [4]: -0.155 | glycan array binding signal (z-score) [5]: 0.229 | glycan array binding signal (z-score) [6]: -0.323 | glycan array binding signal (z-score) [7]: -0.26 | glycan array binding signal (z-score) [8]: -0.229 | glycan array binding signal (z-score) [9]: -0.257 | glycan array binding signal (z-score) (Gal(b1-3)GlcNAc6S): -0.424 | glycan array binding signal (z-score) [10]: -0.152 | glycan array binding signal (z-score) [11]: -0.166 | glycan array binding signal (z-score) [12]: 0.394 | glycan array binding signal (z-score) [13]: 0.04 | glycan array binding signal (z-score) [14]: -0.221 | glycan array binding signal (z-score) [15]: -0.032 | glycan array binding signal (z-score) [16]: -0.252 | glycan array binding signal (z-score) [17]: -0.174 | glycan array binding signal (z-score) [18]: -0.31 | glycan array binding signal (z-score) [19]: -0.237 | glycan array binding signal (z-score) [20]: -0.394 | glycan array binding signal (z-score) [21]: -0.078 | glycan array binding signal (z-score) [22]: -0.295 | glycan array binding signal (z-score) (Gal(b1-4)Gal): -0.351 | glycan array binding signal (z-score) [23]: -0.346 | glycan array binding signal (z-score) [24]: -0.459 | glycan array binding signal (z-score) (Gal(b1-4)Glc): -0.103 | glycan array binding signal (z-score) (Gal(b1-4)Glc6S): -0.209 | glycan array binding signal (z-score) (Gal(b1-4)GlcNAc): -0.328 | glycan array binding signal (z-score) [25]: 0.744 | glycan array binding signal (z-score) (Gal(b1-4)GlcNAc(b1-2)Man): -0.253 | glycan array binding signal (z-score) [26]: 0.04 | glycan array binding signal (z-score) [27]: 0.982 | glycan array binding signal (z-score) [28]: 0.146 | glycan array binding signal (z-score) [29]: 0.539 | glycan array binding signal (z-score) [30]: 0.11 | glycan array binding signal (z-score) [31]: -0.159 | glycan array binding signal (z-score) [32]: -0.062 | glycan array binding signal (z-score) [33]: 0.031 | glycan array binding signal (z-score) [34]: 0.103 | glycan array binding signal (z-score) [35]: 0.083 | glycan array binding signal (z-score) [36]: 0.054 | glycan array binding signal (z-score) [37]: -0.163 | glycan array binding signal (z-score) [38]: 1.23 | glycan array binding signal (z-score) [39]: 2.09

Reference: the supplement of paper PMC8728848
